Test results reported in the supplement of paper PMC9446081.
In all, about 39,000 compounds went through this assay and about 220 (0.56%) showed activity. The list shows a part of the results.
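Note: static incubation at 37 °C against the wild-type strain, values averaged over two biological replicates.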

These compounds were tested on Escherichia coli K-12 BW25113 (assay: relative growth (OD600 normalised to plate interquartile mean) (fraction); higher = less growth inhibition, active = 0.2 or less). Conditions: 50 µM; LB; incubation time: overnight (16-24 h).
`CN(Cn1[nH]c(=O)ccc1=O)c1ccccc1` was tested, and the relative growth was inactive: 0.991. `C[C@@H]1CCCCO[C@H](CN(C)Cc2ccc(C(=O)O)cc2)[C@H](C)CN([C@H](C)CO)C(=O)c2cc(NC(=O)NC3CCCCC3)ccc2O1` was tested, and the relative growth was inactive: 0.979. For `Cc1noc(C)c1NC(=O)Nc1ccc2c(c1)C(=O)N([C@H](C)CO)C[C@H](C)[C@H](CN(C)Cc1ccc(C(F)(F)F)cc1)O2`, the relative growth was inactive: 0.908. With `Cc1noc(C)c1S(=O)(=O)Nc1ccc2c(c1)C(=O)N([C@H](C)CO)C[C@@H](C)[C@H](CN(C)C(=O)Nc1ccc(F)cc1)OCCCC[C@@H](C)O2` the relative growth was inactive: 1.03. With `C[C@@H]1CN([C@H](C)CO)C(=O)c2cccc(NC(=O)c3cnccn3)c2O[C@H]1CN(C)CC1CCCCC1` the relative growth was inactive: 1.02. `C[C@@H]1CN([C@H](C)CO)C(=O)Cc2cc(NC(=O)Nc3cccc4ccccc34)ccc2O[C@@H]1CN(C)S(=O)(=O)c1ccc(Cl)cc1` was tested, and the relative growth was inactive: 1.03. For `C[C@@H]1CCCCO[C@H](CN(C)C(=O)Nc2ccc3c(c2)OCO3)[C@H](C)CN([C@@H](C)CO)C(=O)c2cc(NC(=O)Nc3ccc(F)cc3)ccc2O1`, the relative growth was inactive: 0.991. In the case of `C[C@H](CO)N1C[C@H](C)[C@H](CN(C)Cc2ccc3c(c2)OCO3)OCCCC[C@H](C)Oc2ccc(NC(=O)Nc3ccc4c(c3)OCO4)cc2C1=O`, the relative growth is reported as inactive: 0.982. In the case of `Cc1ccc(S(=O)(=O)N(C)C[C@@H]2OCCCC[C@@H](C)Oc3ccc(NC(=O)NC4CCCCC4)cc3C(=O)N([C@H](C)CO)C[C@H]2C)cc1`, the relative growth is reported as inactive: 0.977. In the case of `O=C(C[C@@H]1C[C@H]2c3cc(NC(=O)Cc4ccncc4)ccc3O[C@H]2[C@@H](CO)O1)NCc1cccc(F)c1`, the relative growth is reported as inactive: 0.994. `C[C@H](CO)N1C[C@H](C)[C@H](CN(C)Cc2ccncc2)Oc2ccc(NS(=O)(=O)c3cn(C)cn3)cc2C1=O` was tested, and the relative growth was inactive: 1.01. With `CC(C)OC(=O)C(C)(C)Oc1ccc(C(=O)c2ccc(Cl)cc2)cc1` the relative growth was inactive: 0.999. `COc1cccc(S(=O)(=O)Nc2ccc3c(c2)[C@@H]2C[C@H](CC(=O)N4CCCCC4)O[C@H](CO)[C@@H]2O3)c1` was tested, and the relative growth was inactive: 0.998. `Cc1ccccc1S(=O)(=O)N1C[C@H](O)COC[C@H]2O[C@@H](CC(=O)N3CCOCC3)CC[C@@H]21` was tested, and the relative growth was inactive: 0.995. For `COc1cc([C@@H]2c3cc4c(cc3[C@@H](O[C@@H]3O[C@@H]5CO[C@@H](C)O[C@H]5[C@H](O)[C@H]3O)[C@H]3COC(=O)[C@H]23)OCO4)cc(OC)c1O`, the relative growth was inactive: 0.978. In the case of `Cc1ccc(S(=O)(=O)N(C)C[C@@H]2Oc3c(NC(=O)c4cc(C)nn4C)cccc3C(=O)N([C@H](C)CO)C[C@@H]2C)cc1`, the relative growth is reported as inactive: 1.04. With `COc1cc2c3cc1Oc1cc(ccc1O)O[C@H]1c4c(cc(OC)c(O)c4Oc4ccc(cc4)C[C@@H]3N(C)CC2)CCN1C` the relative growth was inactive: 0.993. `CC(C)(C)[S@@](=O)N1Cc2cc(C(=O)NCC(F)(F)F)nc(-c3cccc(-c4cccc(F)c4)c3)c2[C@H]1CCO` was tested, and the relative growth was inactive: 1.04. With `C[C@@H]1CCCCO[C@H](CN(C)S(=O)(=O)c2cn(C)cn2)[C@H](C)CN([C@@H](C)CO)C(=O)c2cc(NC(=O)Nc3cccc4ccccc34)ccc2O1` the relative growth was inactive: 1.02. `O=C(C[C@@H]1CC[C@H]2[C@@H](COC[C@@H](O)CN2C(=O)Nc2cccc(Cl)c2)O1)NCCCN1CCOCC1` was tested, and the relative growth was inactive: 0.947. `C[C@H](CO)N1C[C@H](C)[C@H](CN(C)S(=O)(=O)c2cccs2)Oc2ccc(NS(=O)(=O)c3ccccc3)cc2C1=O` was tested, and the relative growth was inactive: 1.01. With `C[C@@H]1CN([C@H](C)CO)C(=O)c2cccc(NS(C)(=O)=O)c2O[C@H]1CN(C)C(=O)NC1CCCCC1` the relative growth was inactive: 1.01. For `CS(=O)(=O)N[C@H]1CCN(c2ccccn2)C1`, the relative growth was inactive: 1.02. With `COc1ccc(S(=O)(=O)N(C)C[C@H]2Oc3cc(C4=CCCC4)ccc3S(=O)(=O)N([C@H](C)CO)C[C@H]2C)cc1` the relative growth was inactive: 1.04. For `Nc1ccc(Oc2ccccc2)cc1`, the relative growth was inactive: 0.861. For `CCC(=O)c1ccc(Cl)s1`, the relative growth was inactive: 1.05. With `COc1ccc(NC(=O)Nc2ccc3c(c2)C(=O)N([C@H](C)CO)C[C@H](C)[C@H](CN(C)C(=O)Nc2ccc(C(F)(F)F)cc2)OCCCC[C@H](C)O3)cc1` the relative growth was inactive: 1. With `Cc1noc(C)c1S(=O)(=O)N(C)C[C@@H]1Oc2c(NS(=O)(=O)c3ccccc3)cccc2C(=O)N([C@H](C)CO)C[C@@H]1C` the relative growth was inactive: 0.978. `C[C@H](CO)N1C[C@H](C)[C@@H](CN(C)Cc2ccccc2)Oc2ccc(NC(=O)Cn3cnnn3)cc2CC1=O` was tested, and the relative growth was inactive: 1.01. With `Cc1ccc(S(=O)(=O)Nc2ccc3c(c2)C(=O)N([C@@H](C)CO)C[C@H](C)[C@@H](CN(C)Cc2ccc(C(F)(F)F)cc2)OCCCC[C@H](C)O3)cc1` the relative growth was inactive: 0.986. In the case of `C[C@H]1CN([C@@H](C)CO)C(=O)c2cccc(NC(=O)Nc3ccc(C(F)(F)F)cc3)c2O[C@@H]1CN(C)C(=O)Nc1ccc(C(F)(F)F)cc1`, the relative growth is reported as inactive: 0.971. For `C[C@@H]1CN([C@@H](C)CO)C(=O)c2cc(NC(=O)Nc3ccccc3)ccc2O[C@@H](C)CCCCO[C@H]1CN(C)C(=O)Nc1cccc2ccccc12`, the relative growth was inactive: 0.997. For `O=c1[nH]cc(Nc2ccccc2)c(=O)[nH]1`, the relative growth was inactive: 1.01. `C[C@@H]1CCCCO[C@H](CN(C)Cc2ccc(Cl)c(Cl)c2)[C@@H](C)CN([C@H](C)CO)C(=O)c2cc(NS(=O)(=O)c3ccc(Cl)cc3)ccc2O1` was tested, and the relative growth was inactive: 1.03. For `CC(C)NC(=O)N(C)C[C@H]1Oc2ccc(NS(=O)(=O)c3ccccc3)cc2C(=O)N([C@H](C)CO)C[C@H]1C`, the relative growth was inactive: 1.01. `C[C@@H]1CN([C@@H](C)CO)S(=O)(=O)c2ccc(C#Cc3cccc(F)c3)cc2O[C@H]1CN(C)C(=O)CN1CCOCC1` was tested, and the relative growth was inactive: 1.01. For `CO[C@@H]1CN(C)C(=O)c2ccc(NS(C)(=O)=O)cc2OC[C@@H](C)N(C(=O)CN(C)C)C[C@H]1C`, the relative growth was inactive: 0.981. With `C[C@@H]1CN([C@@H](C)CO)S(=O)(=O)c2ccc(Br)cc2O[C@H]1CN(C)S(=O)(=O)c1cccc(F)c1` the relative growth was inactive: 0.992. With `C[C@@H]1CN([C@H](C)CO)C(=O)c2cc(C#C[C@@H](C)O)cnc2O[C@H]1CN(C)Cc1cncnc1` the relative growth was inactive: 1. For `COCC#Cc1ccc2c(c1)O[C@@H](CN(C)Cc1ccc(F)cc1)[C@H](C)CN([C@H](C)CO)S2(=O)=O`, the relative growth was inactive: 1.04. `C[C@]1(C(=O)NCC(F)(F)F)c2ccccc2C(=O)N(Cc2cc(F)cc(C(F)(F)F)c2)[C@H]1c1ccc(CO)cc1` was tested, and the relative growth was inactive: 1.01. In the case of `O=C1CCNC(=O)N1`, the relative growth is reported as inactive: 1. `Cc1noc(C)c1NC(=O)Nc1ccc2c(c1)CC(=O)N([C@@H](C)CO)C[C@H](C)[C@H](CN(C)S(=O)(=O)c1ccccc1)O2` was tested, and the relative growth was inactive: 0.971. For `COc1ccc(S(=O)(=O)N(C)C[C@H]2Oc3ccc(NS(=O)(=O)c4cccs4)cc3C(=O)N([C@H](C)CO)C[C@@H]2C)cc1`, the relative growth was inactive: 1.02. With `C[C@@H]1CN([C@H](C)CO)C(=O)c2cccc(NC(=O)Nc3cccc4ccccc34)c2O[C@@H]1CN(C)Cc1ccc(C(=O)Nc2ccccc2N)cc1` the relative growth was inactive: 0.991. In the case of `C[C@@H]1CN([C@@H](C)CO)S(=O)(=O)c2ccc(-c3cccnc3)cc2O[C@@H]1CN(C)CC1CCOCC1`, the relative growth is reported as inactive: 0.998. For `C[C@@H]1CCCCO[C@H](CN(C)C(=O)CCCN(C)C)[C@H](C)CN([C@@H](C)CO)C(=O)c2cc(NC(=O)Nc3ccc(F)cc3)ccc2O1`, the relative growth was inactive: 0.969. In the case of `C[C@H]1CCCCO[C@H](CN(C)C(=O)Nc2ccc(C(F)(F)F)cc2)[C@@H](C)CN([C@@H](C)CO)C(=O)c2cc(NS(=O)(=O)c3ccc(Cl)cc3)ccc2O1`, the relative growth is reported as inactive: 0.998. In the case of `Cc1ccccc1-c1cc(N2CCN(C)CC2)ncc1N(C)C(=O)C(C)(C)c1cc(C(F)(F)F)cc(C(F)(F)F)c1`, the relative growth is reported as inactive: 0.93. For `C[C@@H]1CN([C@H](C)CO)C(=O)Cc2cc(NC(=O)Nc3ccc(C(F)(F)F)cc3)ccc2O[C@@H]1CN(C)Cc1ccccc1`, the relative growth was inactive: 1.02. With `CC(C)C(=O)Nc1nnc2n1CCS2` the relative growth was inactive: 1.02. For `COc1ccc(CN(C)C[C@H]2Oc3c(NC(=O)Nc4cccc5ccccc45)cccc3C(=O)N([C@H](C)CO)C[C@H]2C)cc1`, the relative growth was inactive: 0.989. With `NNC(=O)CCCCC(=O)NO` the relative growth was inactive: 0.971. `C[C@@H]1CN([C@@H](C)CO)C(=O)c2cc(NC(=O)Nc3ccc(F)cc3)ccc2O[C@@H]1CN(C)Cc1ccc(-c2ccccc2)cc1` was tested, and the relative growth was inactive: 1.01. For `O=S(=O)(NCC[C@@H]1CC[C@H](NS(=O)(=O)c2cccc(Cl)c2)[C@H](CO)O1)c1cccc(F)c1`, the relative growth was inactive: 0.998. `O=C(N[C@H]1CC=CC[C@H](CC(=O)N(CCO)Cc2ccccc2)C(=O)N[C@H](Cc2ccccc2)COC1=O)OCC1c2ccccc2-c2ccccc21` was tested, and the relative growth was inactive: 1.02. For `CC(C)NC(=O)N(C)C[C@@H]1Oc2ccc(NS(=O)(=O)c3cccs3)cc2C(=O)N([C@H](C)CO)C[C@H]1C`, the relative growth was inactive: 0.969. In the case of `C[C@@H]1CN([C@@H](C)CO)C(=O)c2cc(NS(=O)(=O)c3cccs3)ccc2O[C@@H](C)CCCCO[C@H]1CN(C)Cc1ccc(C(=O)O)cc1`, the relative growth is reported as inactive: 1.03. With `CCN(CC)c1ccc(N2CC=C[C@@]34O[C@@H]5/C=C\CCCOC(=O)[C@@H]5[C@H]3C(=O)N([C@@H](C)CO)[C@@H]4C2=O)cc1` the relative growth was inactive: 0.997.
